Among all 390,000 compounds or so, about 930 (0.24%) were called active. This list was built around the results that the source calls inconclusive (neither active nor inactive); the mix of calls is not that of the screen. The call rests on the fitted dose curve; in most records, active means well fitted activation curve with a large enough effect; inconclusive means small, poorly fitted or top-dose-only effect; inactive means no such curve, though single readings can be large or run the other way. Potencies of inconclusive entries are doubtful fits and often do not repeat.
experiment: qHTS for Suppressors of FUS Proteinopathy: Primary screen using FUS-linked yeast assay; further: nearly all actives have a fitted effect of over 55% in size;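 on growth rescue (activation): plate controls were DMSO vehicle for no effect and reference control for full effect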; conditions: S. cerevisiae FUS-expressing, OD600, 24 h; Potency: growth rescue; growth rescue (activation): at 76.6 µM (top of the series)
In short: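 Quantitative HTS measuring growth restoration of FUS-toxic yeast. Galactose-induced cells (OD 0.005) were exposed 24hr at 30C to compounds at several concentrations, then absorbance at 600 nm was recorded.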
Potency means the concentration at half of the fitted maximal effect; tags describe the fitted curve by direction and shape.

| SMILES | Potency | growth rescue (activation) |
| --- | --- | --- |
| O=C1NC[C@@H](c2ccccc2)OC(=O)[C@H](Cc2ccc(F)cc2)CC/C=C/C[C@H]1CC(=O)N(CCO)Cc1ccccc1 | inconclusive: 22.4 µM [activator, partial curve, poor fit] |  |
| COC(=O)[C@]12C[C@H](CC(=O)NCC34CC5CC(CC(C5)C3)C4)C(=O)N(CCc3ccc(OC)c(OC)c3)C1=C[C@H](COCc1ccccc1)O[C@@H]2C | inconclusive: 28.2 µM [activator, single point] |  |
| CC1Cc2cc(-c3csc(NC(=O)Cc4ccccc4)n3)ccc2N1S(C)(=O)=O (centres undefined) |  | inactive: 11.4% |
| CCc1ccc(CNC(=O)C2CCN(C(=O)N3CC(CC)Oc4ccc(C)cc43)CC2)cc1 (centres undefined) | inconclusive: 14.1 µM [activator, partial curve, poor fit] |  |
| Cc1cc(C)c(NC(=O)CSc2ncc(S(=O)(=O)c3ccc(C(C)(C)C)cc3)c(=O)[nH]2)c(C)c1 | inconclusive: 22.4 µM [activator, partial curve, poor fit] |  |
| COc1ccc(C(C(=O)Nc2ccc(C(C)C)cc2)N(Cc2ccco2)C(=O)CC2NC(=O)NC2=O)cc1 (centres undefined) | inconclusive: 50.1 µM [activator, single point] |  |
| CC1Cc2ccccc2N1CC(=O)N(C)c1c(N)n(Cc2ccccc2)c(=O)[nH]c1=O (centres undefined) | inconclusive: 39.8 µM [activator, single point] |  |
| COc1ccc(CCNC(=O)Cn2cc(S(=O)(=O)Cc3cccc(Cl)c3)c3ccccc32)cc1OC | inconclusive: 25.1 µM [activator, single point] |  |
| COc1ccc(-c2noc(CSc3nnc(-c4ccc(Cl)cc4)n3C)n2)cc1OC | inconclusive: 15.8 µM [activator, partial curve, poor fit] |  |
| CC(C)c1ccc(NC(=O)CSc2nc(=O)n(Cc3cccnc3)c3c2CCC3)cc1 | inconclusive: 28.2 µM [activator, single point] |  |
| CCCCCCn1c(-c2ccc(Cl)cc2Cl)csc1=Nc1ccccc1 |  | inactive: -13.9% |
| NNS(=O)(=O)c1ccc2c(c1)Cc1cc(S(=O)(=O)NN)ccc1-2 | inconclusive: 35.5 µM [activator, partial curve, poor fit] |  |
| COc1ccc(-c2cc(C(=O)N/N=C(\C)c3cccnc3)c3cc(C)ccc3n2)cc1OC | inconclusive: 25.1 µM [activator, single point] |  |
| Cc1cccc(C)c1NC(=S)NC(=O)c1cccc(Cl)c1 |  | inactive: 33.2% |
| Cc1ccc(S(=O)(=O)Nc2ccccc2C(=O)N2CCOCC2)cc1 |  | inactive: 13.4% |
| COc1cc2[nH]c(=O)n(CCCC(=O)NCc3ccccc3)c(=O)c2cc1OC |  | inactive: -2.18% |
| CCC(C)[C@H](NC(=O)[C@@H]1Cc2ccccc2CN1C(=O)OC(C)(C)C)C(=O)NCC1CCC(C(=O)O)CC1 (some centres undefined) | inconclusive: 28.2 µM [activator, single point] |  |
| COCc1nnc(NC(=O)c2ccc(S(=O)(=O)N(C)Cc3ccccc3)cc2)o1 |  | inactive: 32.9% |
| CSc1nc2nccc(-c3ccc4c(c3)OCO4)n2n1 | inconclusive: 0.891 µM [activator, partial curve, poor fit] |  |
| CCCn1nnnc1NCc1cccn1C | inconclusive: 22.4 µM [activator, partial curve, poor fit] |  |

| SMILES | Potency | growth rescue (activation) |
| --- | --- | --- |
| CCn1c(SCc2ccccc2F)nc(=O)c2c(C(=O)OC)cc(C3CC3)nc21 | inconclusive: 31.6 µM [activator, single point] |  |
| COc1ccc(C(C(=O)NC(C)(C)C)N(C(=O)CCC(=O)Nc2ccccn2)C2CCCCC2)cc1 (centres undefined) | inconclusive: 22.4 µM [activator, partial curve] |  |
| Cc1[nH]c2ccc(C(=O)OC(C)C(=O)N(C)C3CCCCC3)cc2c1C (centres undefined) | inconclusive: 22.4 µM [activator, partial curve, poor fit] |  |
| COC(=O)[C@]12CCCCC=C1N(Cc1cccc3ccccc13)C(=O)[C@H](CC(=O)NCCCCc1ccccc1)C2 | inconclusive: 14.1 µM [activator, partial curve, poor fit] |  |
| COc1ccccc1CNC(=O)c1sc2nc3n(c(=O)c2c1C)CCC3 |  | inactive: 16.4% |
| C#CCOCCOCCOCCNc1nc(N2CCN(C(=O)CCCCCCCCCCNC(=O)[C@H](CCCCN)n3cc(CCCC(=O)O)nn3)CC2)nc(N2CCN(C(=O)CCCCCCCCCCNC(=O)[C@H](CCCN=C(N)N)n3cc(C[C@@H](C)CC)nn3)CC2)n1 | inconclusive: 14.1 µM [activator, partial curve, poor fit] |  |
| COc1cc(OC)c2c(-c3cccc(-c4ccc(CO)cc4)c3)cc(=O)oc2c1 | inconclusive: 39.8 µM [activator, single point] |  |
| COc1ccc(C(=O)NC2CC(C)(C)Cc3c2cnn3-c2ccccc2C)c(OC)c1OC (centres undefined) | inconclusive: 14.1 µM [activator, partial curve, poor fit] |  |
| CSc1ccc(C2Nc3ccccc3-c3cc(C)nn32)cc1 (centres undefined) | inconclusive: 35.5 µM [activator, partial curve, poor fit] |  |
| Cc1ccc(S(=O)(=O)N/N=C2/CC(c3ccccc3)Oc3ccccc32)cc1[N+](=O)[O-] (centres undefined) | inconclusive: 31.6 µM [activator, single point] |  |
| CC(C)C(=O)N1CC[C@H]2[C@H](CCCN2Cc2cc(F)cc(F)c2)C1 |  | inactive: 19.7% |
| Cc1nc2c(C(=O)NC(C)c3ccccc3)cnn2c(C)c1Cc1ccccc1 (centres undefined) | inconclusive: 50.1 µM [activator, single point] |  |
| CCCCCCCCN1C(=O)[C@H](CC(=O)NCC2CCCCC2)C[C@@]2(C(=O)OCC)CCC=C12 | inconclusive: 31.6 µM [activator, partial curve, poor fit] |  |
| Cc1cccc(-n2nc([N+](=O)[O-])c(=NC3CCN(Cc4ccccc4)CC3)n2O)c1 |  | inactive: -6.95% |
| Cc1ccc(S(=O)(=O)N2[C@H](CC(=O)c3cccc4ccccc34)OC[C@@H]2C(C)C)cc1 |  | inactive: 25.7% |
| Cn1cnc2c(=O)oc3ccc(S(=O)(=O)N4CCN(c5cccc(Cl)c5)CC4)cc3c21 |  | inactive: -16.2% |
| C[C@]12c3[nH]c4ccccc4c3CCN1C(=O)C(CC(=O)NCC13CC4CC(CC(C4)C1)C3)C[C@@H]2C(=O)N1CCOCC1 (some centres undefined) | inconclusive: 17.8 µM [activator, single point] |  |
| CC(=O)c1ccccc1NC(=O)COc1ccc(N(C)S(=O)(=O)c2ccc(C)c(C)c2)cc1 | inconclusive: 44.7 µM [activator, single point] |  |
| Cc1cccc(/C(N)=N/OC(=O)Cc2cccs2)c1 |  | inactive: 33.9% |
| O=C(CCNS(=O)(=O)c1ccc2c(c1)CCN2C(=O)C1CC1)Nc1ccc(F)cc1F |  | inactive: -3.32% |

| SMILES | Potency | growth rescue (activation) |
| --- | --- | --- |
| Cc1ccc(NC(=S)Nc2ccc(S(=O)(=O)N3CCOCC3)cc2)cc1S(=O)(=O)N1CCOCC1 | inconclusive: 50.1 µM [activator, single point] |  |
| COc1ccc(NC(=O)c2cccc3c(-c4cccnc4)coc23)cc1 |  | inactive: 12.8% |
| COc1cccc(C(NC(C)=O)c2nc(/C=C/c3ccccc3)cs2)c1 (centres undefined) | inconclusive: 35.5 µM [activator, partial curve, poor fit] |  |
| Cc1cc(C(=O)OCC(=O)N2CCN(c3ccccc3)CC2)c2ccccc2n1 | inconclusive: 12.6 µM [activator, partial curve, poor fit] |  |
| O=C(N1CCC(n2nc(-c3ccccc3)oc2=O)CC1)C1(c2ccc(Cl)cc2)CC1 | inconclusive: 25.1 µM [activator, partial curve] |  |
| CCCCN1CN2CCc3ccccc3C2CS1(=O)=O (centres undefined) |  | inactive: -21.4% |
| CCOC(=O)[C@H]1[C@H]2COc3ccc(Br)cc3[C@@H]2N2C(=O)c3ccc(F)cc3NC(=O)[C@@]12C |  | inactive: 0.359% |
| CCC(C)NC(=O)Nc1ccc2c(c1)N(C)C(=O)c1ccccc1S2 (centres undefined) | inconclusive: 31.6 µM [activator, partial curve, poor fit] |  |
| CN1OC[C@@H]2CN(C(=O)CCc3ccccc3)[C@H](c3cccc(-c4ccccc4)c3)C[C@@H]21 | inconclusive: 50.1 µM [activator, single point] |  |
| Cc1ccc(S(=O)(=O)N2CCC(=O)N([C@H](COCc3ccccc3)C(C)C)CC2)cc1 | inconclusive: 22.4 µM [activator, partial curve] |  |
| COc1ccc(-n2c(Cc3cccn3C)nnc2SCC(=O)Nc2ccc(Cl)cc2)cc1 | inconclusive: 20 µM [activator, single point] |  |
| Cc1cc(C)c2cc(CN(Cc3ccco3)C(=O)NCc3ccccc3)c(=O)[nH]c2c1 | inconclusive: 50.1 µM [activator, single point] |  |
| COc1ccc(/C(N)=N/OC(=O)c2cccc([N+](=O)[O-])c2C)cc1 |  | inactive: -6.65% |
| O=C(O)Cc1sc(N/N=C\c2ccncc2)nc1-c1ccccc1 | inconclusive: 28.2 µM [activator, single point] |  |
| CC(C)C1C(=O)N(Cc2cn(Cc3ccco3)nn2)CCS(=O)(=O)N1Cc1ccc(-c2ccc(F)nc2)cc1 (centres undefined) | inconclusive: 50.1 µM [activator, single point] |  |
| CCOc1ccc(-c2c(C(=O)N/N=C/c3c[nH]c4ccccc34)nnn2-c2nonc2N)cc1 |  | inactive: 22.8% |
| CC(=O)n1cc([C@H]2C=C(C(=O)NCc3ccccc3)O[C@@H](OCc3ccc(CO)cc3)C2)c2ccccc21 | active: 25.1 µM |  |
| Cc1cc(C)c(Cn2c(C(O)c3ccccc3)nc3ccccc32)c(C)c1 (centres undefined) | inconclusive: 8.91 µM [activator, partial curve] |  |
| CC(=O)O[C@H]1C(=O)[C@@]2(C)C([C@H](OC(=O)c3ccccc3)[C@]3(O)C[C@H](OC(=O)[C@H](O)[C@@H](NC(=O)c4ccccc4)c4ccccc4)C(C)=C1C3(C)C)[C@]1(OC(C)=O)CO[C@@H]1C[C@H]2O (some centres undefined) | inconclusive: 10 µM [activator, full curve] |  |
